From publication PMC4336329 (PLoS ONE, 2015)
The campaign covered roughly 310,000 compounds. About 2,200 (0.71%) showed an effect of 50% or more. The effect is printed as a negative number. Some of the results follow.

Target: human ether-à-go-go-related gene (hERG) potassium channel (human, UniProt Q12809)
Assay: primary screen, population patch clamp on CHO cells stably expressing hERG

Chain of human ether-à-go-go-related gene (hERG) potassium channel (Q12809 whole entry, looked up): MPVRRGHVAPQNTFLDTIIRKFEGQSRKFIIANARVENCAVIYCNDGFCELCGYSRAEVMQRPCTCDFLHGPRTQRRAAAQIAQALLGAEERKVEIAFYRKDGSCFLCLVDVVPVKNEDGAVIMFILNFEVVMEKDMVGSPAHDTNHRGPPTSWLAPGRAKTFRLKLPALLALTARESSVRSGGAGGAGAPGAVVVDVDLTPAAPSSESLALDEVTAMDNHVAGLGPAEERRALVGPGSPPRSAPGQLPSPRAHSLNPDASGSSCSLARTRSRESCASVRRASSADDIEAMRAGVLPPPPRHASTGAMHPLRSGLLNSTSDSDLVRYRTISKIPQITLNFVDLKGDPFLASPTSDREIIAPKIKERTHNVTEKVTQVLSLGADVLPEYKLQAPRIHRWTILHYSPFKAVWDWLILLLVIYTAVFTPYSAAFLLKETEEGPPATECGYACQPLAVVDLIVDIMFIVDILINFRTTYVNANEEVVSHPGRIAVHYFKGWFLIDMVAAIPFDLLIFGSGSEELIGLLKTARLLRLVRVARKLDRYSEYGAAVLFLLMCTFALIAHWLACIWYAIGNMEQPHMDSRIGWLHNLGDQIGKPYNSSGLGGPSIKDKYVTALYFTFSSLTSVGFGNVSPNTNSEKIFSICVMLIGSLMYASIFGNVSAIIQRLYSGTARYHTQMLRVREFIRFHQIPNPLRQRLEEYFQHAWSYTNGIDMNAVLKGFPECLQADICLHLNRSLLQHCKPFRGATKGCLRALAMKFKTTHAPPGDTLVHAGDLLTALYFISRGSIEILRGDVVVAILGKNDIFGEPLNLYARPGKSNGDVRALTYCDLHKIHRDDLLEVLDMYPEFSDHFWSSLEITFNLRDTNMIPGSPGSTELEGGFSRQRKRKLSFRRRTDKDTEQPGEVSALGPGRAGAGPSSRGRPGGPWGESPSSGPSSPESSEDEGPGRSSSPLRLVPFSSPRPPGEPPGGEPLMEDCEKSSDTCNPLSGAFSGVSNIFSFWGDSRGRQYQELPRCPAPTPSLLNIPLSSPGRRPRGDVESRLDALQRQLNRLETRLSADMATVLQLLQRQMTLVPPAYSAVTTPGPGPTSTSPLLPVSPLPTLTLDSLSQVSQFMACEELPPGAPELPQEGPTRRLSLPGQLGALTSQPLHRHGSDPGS

Q: `O=C(OCC(=O)N1CCCc2ccccc21)c1ccc(Cl)nc1` was tested. Which “hERG current change (%, negative = inhibition) at 1uM” value did it give?
A: Its value is 7.33%.

Q: `Cc1cccc(C(=O)N2CCCN(C(=O)c3cccc(C)c3)CC2)c1` was tested. Which “hERG current change (%, negative = inhibition) at 1uM” value did it give?
A: The value was 6.97%.

Q: `C/C(=N\NC(=O)CCc1c(C)n[nH]c1C)c1ccc([N+](=O)[O-])cc1` was tested. Which “hERG current change (%, negative = inhibition) at 1uM” value did it give?
A: Its value is 3.91%.

Q: How did the “hERG current change (%, negative = inhibition) at 1uM” value turn out when `COc1ccc(S(=O)(=O)NCC(c2ccc3c(c2)OCO3)N2CCOCC2)cc1` (stereo not shown) was run?
A: Its value is 3.61%.

Q: For `CCOC(=O)N1CCc2c(sc(NC(=O)CCS(=O)(=O)c3ccccc3)c2C(N)=O)C1`, which “hERG current change (%, negative = inhibition) at 1uM” value is on record?
A: The value was 6.71%.

Q: With `O=C1[C@@H]2Cc3c([nH]c4ccccc34)CN2C(=O)CN1CCCCCO` as the compound, how does the “hERG current change (%, negative = inhibition) at 1uM” value read?
A: The value was 10.7%.

Q: Which “hERG current change (%, negative = inhibition) at 1uM” value does the source give for `O=C(CCCl)N1CCCC2(CCCCC2)C1` here?
A: The value was 13.8%.

Q: With `CCOC(=O)N1CC=C2C(C#N)=C(N)C(C#N)(C#N)[C@H](c3ccccc3OCC)[C@H]2C1` as the compound, how does the “hERG current change (%, negative = inhibition) at 1uM” value read?
A: Its value is 7.44%.

Q: How did the “hERG current change (%, negative = inhibition) at 1uM” value turn out when `O=C(Nc1ccccc1)c1cccc(S(=O)(=O)N2CCCCC2)c1` was run?
A: Its value is 17.5%.

Q: With `CCCNC(=O)C1CN(C(=O)c2nn(Cc3ccccc3)c(=O)c3ccccc23)c2ccccc2O1` (stereo not shown) as the compound, how does the “hERG current change (%, negative = inhibition) at 1uM” value read?
A: Its value is 6.6%.

Q: For `CC(O)CNCc1cccc2ccccc12.Cl` (stereo not shown), which “hERG current change (%, negative = inhibition) at 1uM” value is on record?
A: The value was 11.2%.

Q: With `CC1(C(=O)Nc2cccc(S(=O)(=O)N3CCOCC3)c2)Cc2ccccc2C(=O)O1` (stereo not shown) as the compound, how does the “hERG current change (%, negative = inhibition) at 1uM” value read?
A: The value was 12.2%.

Q: `CCOc1ccc(NC(=O)CN2CCN(C(=O)c3ccco3)CC2)cc1S(=O)(=O)N1CCCC1` was tested. Which “hERG current change (%, negative = inhibition) at 1uM” value did it give?
A: Its value is -4.9%.

Q: With `O=C(CSc1cccc[n+]1[O-])N1CCCc2ccccc21` as the compound, how does the “hERG current change (%, negative = inhibition) at 1uM” value read?
A: Its value is 9.37%.

Q: How did the “hERG current change (%, negative = inhibition) at 1uM” value turn out when `CNC(=O)C1(CC(C)C)C=CCN1C(C)=O` (stereo not shown) was run?
A: The value was 13%.

Q: For `CC1CCC(NC(=O)CC(C)(C)Cc2nc3ccccc3c(=O)[nH]2)CC1` (stereo not shown), which “hERG current change (%, negative = inhibition) at 1uM” value is on record?
A: Its value is 8.72%.

Q: `CC(=O)Nc1ccc(N(C(=O)CNC(=O)c2ccco2)C(C(=O)NCc2ccco2)c2ccccc2F)cc1` (stereo not shown) was tested. Which “hERG current change (%, negative = inhibition) at 1uM” value did it give?
A: Its value is 18.3%.

Q: With `COc1ccc(Cl)cc1NC(=O)CN1CCN(S(=O)(=O)N2CCOCC2)CC1` as the compound, how does the “hERG current change (%, negative = inhibition) at 1uM” value read?
A: Its value is -19.4%.

Q: With `CCOC(=O)c1cc(C)sc1/N=C/C1=C(O)CCCC1=O` as the compound, how does the “hERG current change (%, negative = inhibition) at 1uM” value read?
A: Its value is 3.64%.

Q: Which “hERG current change (%, negative = inhibition) at 1uM” value does the source give for `O=C(Nc1ccc(Cl)cc1)c1ccc2nsnc2c1` here?
A: The value was 18.3%.

Q: How did the “hERG current change (%, negative = inhibition) at 1uM” value turn out when `Cc1ccc(C)c(N2N=C(C(=O)Nc3cccnc3)CCC2=O)c1` was run?
A: Its value is 3.96%.

Q: For `CCOC(=O)c1c(NC(=S)Nc2ccc(OC)cc2)sc2c1CCCCC2`, which “hERG current change (%, negative = inhibition) at 1uM” value is on record?
A: Its value is 22.1%.

Q: With `CCOC(=O)Oc1ccc2c(=O)c(Oc3cc(C)cc(C)c3)coc2c1` as the compound, how does the “hERG current change (%, negative = inhibition) at 1uM” value read?
A: The value was -7.75%.

Q: For `Cc1cccc(N2CCN(C(=O)CN(C)S(=O)(=O)c3ccc4c(c3)CCC(=O)N4)CC2)c1C`, which “hERG current change (%, negative = inhibition) at 1uM” value is on record?
A: The value was -13%.

Q: How did the “hERG current change (%, negative = inhibition) at 1uM” value turn out when `COC(=O)C1CCN(C(=O)COC(=O)[C@@H]2CC(O)CN2S(=O)(=O)c2ccc3c(c2)OCCO3)CC1` (stereo partly shown) was run?
A: The value was 7.74%.

Q: With `O=C1c2ccccc2C(=O)c2[nH]c(=O)[nH]c21` as the compound, how does the “hERG current change (%, negative = inhibition) at 1uM” value read?
A: The value was 5.6%.

Q: For `CC1CCN(C(=O)Cn2cc(SCC(=O)NCC3CCCO3)c3ccccc32)CC1` (stereo not shown), which “hERG current change (%, negative = inhibition) at 1uM” value is on record?
A: Its value is 5.1%.

Q: With `CCOC(=O)C1CCN(c2cc3c(cc2NC(=O)c2cc(OC)ccc2Br)n(C)c(=O)n3C)CC1` as the compound, how does the “hERG current change (%, negative = inhibition) at 1uM” value read?
A: The value was 18.8%.

Q: `Cc1cc(C)c(-c2cc(C(F)(F)F)no2)c(=O)[nH]1` was tested. Which “hERG current change (%, negative = inhibition) at 1uM” value did it give?
A: The value was 12.2%.

Q: For `CC(C)CNC(=O)COC(=O)c1ccc(Cl)c(S(N)(=O)=O)c1`, which “hERG current change (%, negative = inhibition) at 1uM” value is on record?
A: The value was 8.61%.

Q: How did the “hERG current change (%, negative = inhibition) at 1uM” value turn out when `Cn1cc(Br)c(C(=O)NC(=S)Nc2ccc(S(N)(=O)=O)cc2)n1` was run?
A: Its value is 11.8%.

Q: With `CCCCCCCCc1c(O)nc(-n2[nH]c(C)c(CCO)c2=O)[nH]c1=O` as the compound, how does the “hERG current change (%, negative = inhibition) at 1uM” value read?
A: Its value is 11.8%.

Q: Which “hERG current change (%, negative = inhibition) at 1uM” value does the source give for `Cc1cc(C)cc(NC(=O)CN2CCN(CCN=CC3=C(O)CC(c4ccc(Cl)cc4)CC3=O)CC2)c1` (stereo not shown) here?
A: The value was -1.31%.

Q: With `Cc1ccccc1NC(=S)N(Cc1cccnc1)Cc1ccccc1Cl` as the compound, how does the “hERG current change (%, negative = inhibition) at 1uM” value read?
A: Its value is 4.47%.

Q: With `Cc1ccc(C(=O)NC(=S)NNS(=O)(=O)c2ccccc2)cc1` as the compound, how does the “hERG current change (%, negative = inhibition) at 1uM” value read?
A: The value was 13.5%.

Q: With `CC(=NCc1ccc(F)cc1)c1c(O)n(C)c(=O)n(C)c1=O` as the compound, how does the “hERG current change (%, negative = inhibition) at 1uM” value read?
A: Its value is -6.74%.

Q: For `COc1ccc(CNC(=S)Nc2ccccc2)cc1`, which “hERG current change (%, negative = inhibition) at 1uM” value is on record?
A: The value was 7.93%.

Q: Which “hERG current change (%, negative = inhibition) at 1uM” value does the source give for `Cc1nn(CC(=O)O)c2ccccc12` here?
A: The value was 18.5%.

Q: For `CCC(C)NS(=O)(=O)c1ccc(NC(=O)C2CCN(C(=O)c3ccco3)CC2)cc1` (stereo not shown), which “hERG current change (%, negative = inhibition) at 1uM” value is on record?
A: The value was 8%.

Q: For `Cc1ccc(OCCC(=O)NCCc2ccc(S(N)(=O)=O)cc2)cc1`, which “hERG current change (%, negative = inhibition) at 1uM” value is on record?
A: The value was 11.9%.

Q: Which “hERG current change (%, negative = inhibition) at 1uM” value does the source give for `CCOC(=O)C1CCN(C(=O)Cn2cc3c(n2)CCC(C)C3)CC1` (stereo not shown) here?
A: The value was 6.1%.

Q: Which “hERG current change (%, negative = inhibition) at 1uM” value does the source give for `c1cnc(Oc2ccc3oc4ccccc4c3c2)nc1` here?
A: Its value is 7.27%.

Q: Which “hERG current change (%, negative = inhibition) at 1uM” value does the source give for `CCC/C=C1/CCCOC(C(=O)NCc2ccccc2)(C(F)(F)F)C1` (stereo not shown) here?
A: Its value is 12%.
